Data as given in paper PMC10367076, “Mechanistic and Structural Insights into a Divergent PLP-Dependent L-Enduracididine Cyclase from a Toxic Cyanobacterium” (ACS Catalysis, 2023).

Target: GntC (Sphaerospermopsis torques-reginae, UniProt A0ABX8WVP5)
Conditions: covalent; internal aldimine with K219

Q: With `Cc1ncc(COP(=O)(O)O)c(C=O)c1O` [pyridoxal-5′-phosphate] as the compound, how does the “X-ray crystal structure, 2.10 Å” value read?
A: we obtained crystal structures of GntC with bound PLP (PDB ID: 8FFT)
